# Laboratory results published in the supplement of paper PMC10185492.
# The other results are listed elsewhere or left out. Read counts after selection give these values, which scatter widely.
# Test system: SARS-CoV-2 3CLpro (nsp5)
# Experiment: substrate phage enrichment score (protease-eluted vs HEPES control, +1 offset) (ratio); higher = better cleaved substrate
# Conditions: selection round: 3; protease elution time: 0.5 h
# Experimental: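 Random heptapeptide substrate phage display (M13 pIII fusion, heptapeptide between an N-terminal biotinylated AviTag GLNDIFEAQKIEWHE and pIII; phages immobilised on streptavidin) eluted by cleavage with 50 nM protease in 20 mM HEPES at 37 °C. Selected phages were NGS sequenced, and the enrichment score is (reads in protease sample + 1)/(reads in HEPES blank-selection control + 1).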
row,Substance,substrate phage enrichment score
1,SESELPD,0.96
2,RLMSSLQ,> 25
3,PKAAHHH,1.07
4,LGQPDLW,14
5,PPVAEQH,> 47
6,ASDSVLQ,> 26
7,SIGQTHS,> 31
8,PCAKSQE,0.867
9,SWQVGNS,14.3
10,MHVPNSP,3
11,CATPDCA,> 22
12,VRPQKAP,> 31
13,VKTSWPP,> 53
14,RVAAHHH,1.68
15,VAWPQLQ,> 29
16,SRQLYSP,> 26
17,ASAAHHH,1.5
18,KHCGSNG,10.5
19,KHQLPVR,15.5
20,RRDAIPV,1.38
21,SDALTSK,3.29
22,QQCTNGW,8.75
23,GSATRLQ,> 25
24,SRAFNRE,> 27

row,Substance,substrate phage enrichment score
1,REGHIRL,1.5
2,RQGTLSP,3.08
3,QYMPVPR,10
4,PAAHHHH,1.15
5,NAAVRRP,> 45
6,FTSPPRQ,3.33
7,AERLSCY,2.58
8,IVRPHII,0.96
9,CVRRIEP,> 23
10,QTWPSRL,> 51
11,QKGVKMQ,22.5
12,WYDSKWT,1.75
13,PESPLKN,> 41
14,QQPEYMV,1.22
15,SNTEPRD,5
16,CKNSSQL,11.5
17,LHARPGQ,> 31
18,EASTEYG,0.667
19,AGLSPNR,> 39
20,QCDRPEK,> 21
21,SWSQFYR,10
22,VLPHIII,1.35
23,IYTVTEQ,> 22
24,EDTGNMV,0.0909

row,Substance,substrate phage enrichment score
1,SKVRMGS,> 26
2,SSRQSVR,> 25
3,SKAGREE,13
4,ETSAAAH,2.14
5,CWAAHHH,0.737
6,EPNTPIT,11.5
7,SNALFRN,> 21
8,HEATARD,> 28
9,PNERNSR,> 26
10,LTGSMLQ,> 64
11,TCNVNLQ,> 51
12,RATRARE,0.714
13,SKPSACR,> 22
14,HSRKDCG,1.3
15,FPFRTNH,2.15
16,SQSARTY,> 22
17,KQCVTRN,1.5
18,AVRCELQ,> 116
19,RGHWTTQ,1.76
20,LYRERPD,> 28
21,YWPTKKG,0.333
22,REKPAGS,1.88
23,SCTHRWP,> 35
24,CLAAHHH,1.1

row,Substance,substrate phage enrichment score
1,RRILRFR,> 39
2,SQHQAGP,3
3,STEHGRN,> 21
4,RDTANLQ,> 62
5,PGLSALQ,> 87
6,ARMPLVQ,12
7,CTMFRAL,1.45
8,VRPTQLQ,> 27
9,SASPHPG,> 31
10,GHAAAHH,0.778
11,RPTTVLQ,> 24
12,PRLPSFK,> 48
13,PGGSAAA,0.478
14,STPAHHH,1.46
15,SAAAKHH,1.3
16,QKSYTLK,> 24
17,CVKPYVN,> 42
18,RDRLHRQ,2.2
19,CVLYKKL,0.06
20,SCPGSRS,> 58
21,AFWNEMR,> 35
22,CAQRCVR,8
23,PKHTREH,11.5
24,QSILQGT,82

row,Substance,substrate phage enrichment score
1,KTSATLN,> 21
2,PRNNRLQ,16.5
3,HRGAILQ,> 43
4,SAAAHHP,1.57
5,NAAAHLN,> 21
6,FTTPKGP,9
7,TEAWNEI,2.38
8,ASASGSD,5.07
9,PTLQSNA,> 44
10,QPAAHHH,1.44
11,TPVPKTC,> 22
12,FPGERTH,2.14
13,LRRNAEC,12
14,WGSQPVS,13.5
15,PAQTLTT,> 23
16,SRYKAGI,10.5
17,QVKPNGF,8.4
18,ALTCHPR,2.2
19,RGCQAHP,0.55
20,RAAAQQH,1.6
21,DPIKWTP,10.7
22,DEAAHHH,0.381
23,SGAAHHH,0.774
24,WPQTESC,> 45

row,Substance,substrate phage enrichment score
1,TRGHSSV,0.139
2,TTAAHHH,1.21
3,RRPHIII,1.49
4,NRAAHHH,1.03
5,QRSGRSG,81
6,EPKWPVY,8.33
7,SAAAHQN,1.48
8,QAAHHHH,0.692
9,SHRVILQ,> 99
10,LLQSSKG,4.43
11,HYFQGGS,1.8
12,RYFQGGS,0.803
13,GHHVHAA,2.14
14,VHSTDVI,> 23
15,SERAVVL,> 43
16,TETKAVT,2.75
17,AHHARLQ,> 56
18,SGRAINS,2.43
19,QNTGNLT,12
20,SLWLGQT,> 21
21,GCVLQAA,> 242
22,ASGSTSE,3.8
23,SNFQGGS,0.857
24,NVAAHHH,0.83

row,Substance,substrate phage enrichment score
1,LQRTWPN,> 32
2,TGAGARQ,> 23
3,ESRDRPT,2.22
4,TRDGMSA,2.38
5,EQYFQGG,1.35
6,TTRYQAD,2.57
7,CTPCSNQ,> 65
8,LRPATMQ,> 28
9,HQAAHHH,2.16
10,TSQTGAR,29
11,VGGSAAA,0.929
12,KQVTTPW,2
13,TSECSAR,> 21
14,RQASQYG,2.25
15,DQVSTKK,> 21
16,SPDFRSK,2
17,TDKQESS,6.75
18,DKAAHHH,1.05
19,PSAAHHH,1.09
20,RERCQWA,2.14
21,GRLPCGR,3.88
22,QNVVGRH,1.88
23,CTIPQPP,> 25
24,SAAAHHH,0.99

row,Substance,substrate phage enrichment score
1,YAGSAAA,5.75
2,PCRPTNH,> 21
3,QFSTTLQ,> 33
4,SKTRVSQ,> 26
5,PASTMGQ,> 141
6,QKPNMLY,> 21
7,QRHTTSV,5.6
8,CLVRIIR,0.929
9,IQSSTLI,1.67
10,FRPHIII,1.55
11,EHCKIQR,> 46
12,SPSLSVQ,4.88
13,QMCVPTD,> 45
14,PCFQGGS,0.6
15,HGAAHHH,0.435
16,RIFRVVV,3.25
17,ASRVPSA,> 21
18,VALQSGS,> 49
19,GNFPAQN,1.64
20,PYSMSAR,2.38
21,LNNHNAR,2.25
22,SYFQGGS,2.36
23,KEAAHHH,0.979
24,YLNHRCN,0.917

row,Substance,substrate phage enrichment score
1,PYECTPG,13.3
2,TPILQAQ,164
3,STQPVRP,> 21
4,PDHNLTH,1.08
5,NGLSQYR,3.19
6,TQCGATG,9.33
7,PCTEPLT,> 34
8,LSGQHPC,11
9,ANFQGGS,2.9
10,TGAAHHH,0.755
11,SNFAAPD,> 25
12,STSHGGR,9
13,RDGTSLQ,> 30
14,YGLNYYR,3.86
15,LPCSRNG,1.3
16,QPVIERQ,> 51
17,ALRTQLQ,41.5
18,HESYARF,14
19,PGEYVQP,0.857
20,SRINLRA,3.5
21,KASGTAA,47
22,EEETITR,4.12
23,TDFQGGS,1
24,NSYLNMP,3.16

row,Substance,substrate phage enrichment score
1,WTQENST,> 40
2,TRSDGET,4
3,SWCTVPK,> 42
4,QATVFCH,1.46
5,RRPHVHT,4.6
6,HHVNSVD,3
7,LPAAHHH,1
8,AVGEYIN,1
9,MHFQGGS,0.667
10,YRTRLQS,> 47
11,EQVSQLQ,> 28
12,VWAGAPW,4.17
13,YSRCLLQ,> 21
14,QLPTFVP,> 23
15,YPAAHHH,0.964
16,CSEYKRY,> 98
17,AAENMIN,> 26
18,HAKAHKS,0.609
